# Measurements: the supplement of paper PMC12889115
# This is one part of the list. Cut-off read from the data, not from the text of the source: active = 25% or less and inactive = the rest. Most values come without repeats; read them as rough.
# Legend:
# [1] = system: Salmonella enterica serovar Typhimurium SL1344; test: bacterial growth OD600 after 18 h in MHB with 0.5 µg/mL polymyxin B; higher = more bacterial growth (less inhibition); conditions: 25 µM; polymyxin B 0.5 µg/mL; system: broth
# Experimental: (§1)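 Secondary screen of the 553 primary hits at 25 µM. (i) S. Typhimurium SL1344 grown in Mueller-Hinton broth with 0.5 µg/mL polymyxin B, OD600 read after 18 h. (ii) SAFIRE assay: RAW 264.7 macrophages infected with S. Typhimurium sifB::gfp (MOI 30); compound added 2 h post-infection; cells fixed at 18 h; GFP-positive pixel fraction per macrophage imaged by confocal microscopy and expressed as % of DMSO control.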
# [2] = system: Salmonella enterica serovar Typhimurium SL1344; test: intramacrophage bacterial GFP load (SAFIRE), percent of DMSO control (% of DMSO); higher = more intracellular bacteria (less inhibition); conditions: 25 µM; system: infected RAW 264.7 macrophages
# Experimental: as §1
# 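Throughout, for bacterial growth OD600 after 18 h in MHB with 0.5 µg/mL polymyxin B: polymyxin B level opens the outer membrane while sparing the inner membrane, with novobiocin wells as reference growth inhibitor.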
# 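Throughout, for intramacrophage bacterial GFP load (SAFIRE), percent of DMSO control: compounds tested were the hits of an earlier 50 µM broth growth screen of a drug-like diversity library run with polymyxin B.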
SMILES,bacterial growth OD600 [1],intramacrophage bacterial GFP load [2]
CN(Cc1cccnc1)C(=O)C1(N2CCCCC2)Cc2ccccc2C1,0.003,inactive: 59.3
CC(=O)c1ccc(F)c(-c2cc(C)cc3c2OC(CNC(=O)c2ccccc2F)C3)c1 (stereo unspecified),0.015,inactive: 112
Cc1c(C(=O)NCC2OCCc3ccccc32)cnn1-c1ncc2c(n1)-c1ccccc1CCC2 (stereo unspecified),0,inactive: 95.6
O=C(NCC1CCCN(S(=O)(=O)/C=C/c2ccccc2)C1)c1ccco1 (stereo unspecified),0.008,inactive: 90.1
COc1ccc(OC)c(CN2CCOc3ccc(C(O)CCc4ccccc4)cc3C2)c1 (stereo unspecified),0.334,inactive: 51.3
CCN1CCCC(CN(C)C(=O)c2cc(NC(=O)COC)cc3nc(-c4cccnc4)n(CC)c23)C1 (stereo unspecified),0.672,inactive: 96.4
CCCc1ccc2oc(C(=O)N3CCCC(COC)C3)c(C)c2c1 (stereo unspecified),0.002,inactive: 53.7
COCC1CCN(C(=O)CC(c2ccccc2)c2cccc(Cl)c2)CC1 (stereo unspecified),0.004,inactive: 67.7
CN(CCc1ccccc1)C1(C(=O)N[C@H]2CC[C@H](O)CC2)Cc2ccccc2C1,0.006,inactive: 31.5
CC(NC(=O)CCc1ccccc1)c1nnc2n1CCN(Cc1ccc3c(c1)Cc1ccccc1-3)CC2 (stereo unspecified),-0.006,inactive: 34.7
Cc1csc(CNC(=O)CC(c2cccc(O)c2)c2cccc(Cl)c2)n1 (stereo unspecified),0.414,inactive: 99.1
COCCCN1C(=O)CC(CC(=O)N2CCC(c3ccccc3Cl)C2)(c2ccccc2OC)C1=O (stereo unspecified),-0.004,inactive: 81.3
CCOC(=O)C1(CCc2ccccc2)CCN(C(=O)c2occc2C)CC1,0.003,inactive: 29.8
CN(C(=O)c1cc(NS(C)(=O)=O)cc2ncn(CCc3ccccc3)c12)C(C1CC1)C1CC1,0.005,inactive: 162
Cc1ccc(OCc2cc(C(=O)N(C)C3CCCCC3)no2)cc1C,0.007,inactive: 140
COc1ccccc1C(=O)N[C@@H]1c2ccccc2C2(CCN(C(=O)CC3CCCC3)CC2)[C@H]1OC,-0.006,inactive: 68.4
COc1ccccc1C1(CC(=O)N2CCCC(c3ccccc3C)C2)CC(=O)N(C)C1=O (stereo unspecified),0.011,inactive: 131
COCc1ccc(C(=O)N2CCCC(CCc3ccc(F)c(F)c3)C2)o1 (stereo unspecified),0.004,inactive: 51.1
Cc1ccc(S(=O)(=O)N2CCC(CO)(Cc3cccc(C(F)(F)F)c3)CC2)s1,0.002,inactive: 123
COc1ccc(Cl)cc1NC(=O)CCC1CCCN(C(=O)CC2CCCC2)C1 (stereo unspecified),0.432,inactive: 31.5
O=C(CCC1(Cc2ccc(F)cc2)CCC(=O)N1)NC(c1ccccc1)c1ccc(Cl)cc1 (stereo unspecified),0,inactive: 50.6
COc1ccc(/C=C/C(=O)N(Cc2ccncc2)Cc2cccc(OCCc3ccc(F)cc3)c2)cc1,0.003,inactive: 56.3
CC(C)Oc1ccc(C(=O)N2CCC(CO)(Cc3ccc(Cl)cc3)CC2)cc1,-0.002,inactive: 151
O=C(CCC1CCCN(Cc2cccc(O)c2)C1)NCc1ccccc1Cl (stereo unspecified),0.141,active: 8.41
Cc1ccc2c(c1)CN(CC(=O)NCc1cn3c(C)cccc3n1)CC(c1ccsc1)O2 (stereo unspecified),-0.003,inactive: 52.6
Cc1ccn(CCC(=O)N2CCC3(CC2)CC3C(=O)NCCC(c2ccccc2)c2ccccc2)n1 (stereo unspecified),0.362,inactive: 103
Cc1ccc2c(c1)CN(Cc1cnn(C)c1C)CC(c1ccsc1)O2 (stereo unspecified),0.007,inactive: 85.9
CCOC(=O)C1(Cc2ccccc2C)CCCN(Cc2ccc(COC)o2)C1 (stereo unspecified),0.092,inactive: 33.1
